Measurements from the supplement of paper PMC3334620.
The full ranking holds about 33,000 sequences; the median of “E-score (-0.5 to 0.5)” is about -0.016, and the highest 2% start at about 0.32. Some of the results follow.

Target: T1, Stp1 (UniProt B3LFK1)
T1 sequence: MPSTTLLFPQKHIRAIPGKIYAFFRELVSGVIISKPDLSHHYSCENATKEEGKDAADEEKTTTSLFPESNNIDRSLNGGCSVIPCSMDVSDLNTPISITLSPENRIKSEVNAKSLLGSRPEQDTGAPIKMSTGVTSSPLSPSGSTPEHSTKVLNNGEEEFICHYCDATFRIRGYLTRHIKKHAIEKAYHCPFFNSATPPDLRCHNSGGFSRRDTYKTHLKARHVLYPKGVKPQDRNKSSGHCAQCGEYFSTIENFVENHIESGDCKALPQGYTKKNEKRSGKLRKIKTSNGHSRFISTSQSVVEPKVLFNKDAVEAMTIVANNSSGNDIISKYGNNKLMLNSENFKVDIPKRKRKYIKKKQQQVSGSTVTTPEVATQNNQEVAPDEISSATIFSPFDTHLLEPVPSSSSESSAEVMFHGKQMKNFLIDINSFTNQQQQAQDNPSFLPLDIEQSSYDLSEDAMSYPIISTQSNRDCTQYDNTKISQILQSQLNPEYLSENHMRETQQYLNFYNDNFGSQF
Assay: PBM E-score (8-mer binding enrichment) (E-score (-0.5 to 0.5)); higher = stronger / more preferred TF binding; most listed sequences are background and not binding sites
Settings: protein concentration: 200 nM; construct: GST-full length
Description: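 Universal 'all 10-mer' protein binding microarrays (Agilent AMADID 015681) probed with GST-tagged S. cerevisiae TFs (full-length or DBD) made by in vitro transcription/translation (PURExpress), about 100-200 nM. Bound TF was detected with fluorescent anti-GST. Each ungapped 8-mer (which stands for itself and its reverse complement) is scored by the PBM enrichment score (E-score), a modified Wilcoxon-Mann-Whitney statistic from -0.5 to +0.5, computed with the Universal PBM Analysis Suite. Scale: above 0.35 generally sequence-specific binding.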

Sequence | PBM E-score
CCTCAACA | 0.168
TCCCAACA | -0.0125
CGCTCAAG | -0.0541
AACCGTAG | -0.0182
ATTTGCTA | 0.125
AAAATTTT | 0.152
GTAGAAAC | 0.0908
AAGGTGAA | -0.00311
AGTCAAGA | -0.0455
AAAATCAC | 0.0634
CCCGCGAG | -0.117
GGACTTAA | -0.216
CGAACCAA | -0.0133
AAAGTTCG | 0.192
AGCCACTC | 0.0834
GGCATAGA | 0.134
GATGTTAC | 0.0244
CAAGGCCG | 0.103
AAGTAGTC | 0.00928
TCAGAGGA | -0.284
CGCTGCAG | -0.109
ATCCCAGC | -0.171
CTTACCTC | -0.245
ACGCTGCG | -0.0618
CGAAAAAA | 0.147

Sequence | PBM E-score
CATGTTCG | -0.0735
TAACGTGA | 0.06
CCGAAAGC | -0.274
GGGATGGA | -0.114
GCAGACTA | 0.0053
AAGTGGCT | 0.132
CCGTTTCC | 0.121
CGTCCCTC | -0.131
AATGGTCG | -0.0272
AAGGGGGT | -0.301
CAGTCCTC | -0.0753
ATCCCGTC | -0.206
ACGGTACA | 0.123
AACGATCC | -0.211
AGTAAATG | 0.0843
ACTTTGAG | 0.0437
ATTGCATG | 0.145
GCTTTGTA | 0.135
CCCTGCCC | -0.215
CAAGCCGC | 0.299
CACTGATG | -0.0393
GACGGCCA | -0.0395
AAACGTGT | -0.0871
ATAAAGAG | -0.0649
CATGACGA | -0.0371

Sequence | PBM E-score
CAAAGGAG | -0.0545
TCATGAGA | 0.0946
CCAATACA | -0.116
GATTGTAC | -0.0306
GAAGTTAC | 0.0897
AGTAGCAG | -0.0197
ATCGCGAG | 0.0313
CAAGCCCG | -0.0901
ACTTATAA | 0.148
TCTGAGAA | -0.0138
ATAAGTCA | 0.0453
AGATGGCG | 0.165
GTCTAGGA | -0.156
ACCTGTGA | -0.159
AGGTGTGG | -0.103
GTATTTTA | 0.142
GGGAGCAC | -0.246
CACCATAA | 0.147
ATCATTCG | 0.119
TACCAGCA | -0.0453
GATATAGC | -0.0525
AAGTCCGA | -0.222
AGATACGG | 0.284
TAAAGGGA | -0.164
AAGCTGGA | -0.0865

Sequence | PBM E-score
CACCATCA | -0.0942
AACTGGTG | -0.127
GTTTCTCA | -0.115
TAGAGGCA | -0.0206
CAATCGAA | 0.163
CAAGCCCA | -0.0787
CCAGGAGC | -0.0555
GACACTCC | 0.0152
ACGACCGA | -0.223
GTATTGAC | -0.0318
GGGGAAAC | -0.177
GGGATGTA | -0.109
AAGAGACC | -0.0796
ATCCAATG | -0.0429
CTCATGGA | -0.173
CTGCGATA | 0.0226
CCTTTTAA | 0.139
AAGAGCCA | 0.103
GACACATC | -0.088
CTCTAAAG | -0.0701
AGCTCATG | -0.18
ACTCATAA | -0.0106
ACGCAACC | -0.0424
CGGAGTCC | -0.0203
CGCGGCTA | 0.397

Sequence | PBM E-score
AAGGGCAC | 0.314
GCATTGCA | 0.147
ACGCGGTC | -0.0102
CACTGAAC | 0.109
ATCCCTAG | -0.0475
ACCACCTA | -0.249
CTGCCCCC | -0.327
AAAGGTAG | -0.156
CTGACGCC | 0.0864
CCTCTTCG | 0.0316
ATGCCCTA | 0.168
CTTGCCTC | 0.0687
CCCACGAG | -0.267
AGACTGTC | -0.207
CCGGCTAC | 0.0509
ACGTGGAG | -0.218
CCACTAGA | -0.0989
AGTATATA | 0.363
GCGATGGA | 0.00754
AGGACTCC | -0.375
AGCTTGCC | -0.0811
AACGAGCC | 0.133
CGCCCCAC | 0.179
ATACTGAC | 0.112
TCGAACGA | 0.0236

Sequence | PBM E-score
GAGGTATC | -0.0217
CGGTGTAC | -0.0565
CATAAATA | 0.184
CTGAAAAC | 0.171
CCAAATAG | 0.0384
ACTCCTTC | -0.245
AGCTAGAG | -0.00782
CGGCTTTC | 0.196
ACCCCTCT | -0.267
ACTGTCAG | -0.00332
GTTAGGCA | 0.101
AATTACTC | 0.144
CGCAATCC | -0.0128
GAGGTCTA | -0.139
ACCGTGTG | 0.151
AACATCGT | -0.00324
CGTTGGCA | 0.233
GATGCTGC | -0.0227
ACGGATTG | 0.113
AAAGGGTG | -0.123
CCTACCGA | -0.153
CGGGTCGA | -0.207
ACATGTGC | 0.142
GGGGTTGA | -0.167
GATAAACC | 0.172

Sequence | PBM E-score
AACTACCG | -0.103
GACCTCTC | -0.186
CTCGGAAG | -0.0743
CTAGAGAC | -0.325
CCAGTCCC | -0.246
ATTTTCAC | 0.213
TGCCTCCA | -0.281
CAGCGTGC | 0.00112
CTAGCGAG | -0.227
AGGTAAGA | -0.0903
ATCAACAT | 0.0155
AAGCCAAC | 0.146
AACCAATG | -0.0152
GCGTATGA | 0.09
AATTATAG | 0.0636
CAATTCAG | -0.175
GTCTAAAC | 0.0396
ACGGGCAA | 0.0357
CAGACCCG | -0.0255
ATCAGTAC | 0.023
CTACTATC | 0.125
AAGAACGT | 0.0579
